# ± gives the standard deviation. Whole data set: some 6,600 sequences, median “pre-steady-state target cleavage rate” near 0.07, cut for the highest 2% near 0.72. Only a part is listed here, and it is no random draw.
# Tested on: MIWI (PIWIL1) piRISC loaded with Kctd7 piRNA (30 nt)
# Assay: pre-steady-state target cleavage rate (min^-1); MIWI and MILI are mouse PIWI proteins and EfPiwi is from a freshwater sponge; tags in brackets are library labels; higher = faster piRNA-guided slicing of the target
# Conditions: guide: Kctd7 piRNA 5'p-UGUUAAUCUCUCAGAGAAGGUGACAGUGAU; auxiliary factor: 500 nM mouse GTSF1
# In short: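 For Cleave-'n-Seq, a transcribed, DNA-blocked target RNA library […] met 1 nM active affinity-purified piRISC with one synthetic guide at 33 °C for 0–8 or 0–960 min in HEPES–potassium acetate buffer, with or without 500 nM GTSF1 partner protein. Uncleaved targets were sequenced and normalised to depth and weakly complementary targets, with three trials pooled and k3 capped at 0.0001 min^-1. A burst-and-steady-state fit supplied the pre-steady-state cleavage rate.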
# 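Further: 1 nM active piRISC with 0.1 nM target library at 33 °C single turnover.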
row,Sequence,pre-steady-state target cleavage rate
1,AUCACUCUCACCUUCUCUCAGAGAUUAACA,0.103 ± 0.0076
2,UAGUGAGUCACCUUCUCUUAGAGAUUAACA,0.373 ± 0.025
3,UAGUGACAGACAUUCUCUGAGAGAUUAACA,0.00694 ± 0.0032
4,UACACUGUCACCUUCUCUCAGAGUUUAACA,0.0639 ± 0.01
5,UAGUGAUUCACCUUCUCUGAGAGAUUAACA,0.568 ± 0.033
6,UAGUGACAGUGCUUCUCUGAGAGAUUAACU [g2:g19:cont:t1U],0.00941 ± 0.003
7,UAGUGUCUGACCUUCUCUGAGAGAUUAACA,0.399 ± 0.025
8,UAGUGAGUCAUCUUCUCUGAGAGAUUAACA,0.66 ± 0.034
9,UACUCUGUCACCUUCUCUGUGAGAUUAACA,0.286 ± 0.013
10,UAGACAGUCACCUUGUCUGAGAGAUUAACA,0.293 ± 0.029
11,UAGUGACAAACCUUCUCUGAGAGAUUAACA,0.159 ± 0.013
12,UAGUGACUCACCUUCUGUGAGAGAUUAACA,0.5 ± 0.042
13,UACACAGUCACCUUCUCUGAGAGAUUAUGA,0.0769 ± 0.019
14,UAGUGACACACCUCUCUCUGAGAGAUUAACA,0.155 ± 0.016
15,UAGACUGUCACCAUCUCUGAGUGAUUAACA,0.0118 ± 0.0013
16,AUCACUGUCACCUUCUCUGAGAGUAUUUGA,0.109 ± 0.034
17,UAGACUGUCACCUUCUGACUCUCUAAUUGA [g15:g27:cont:t1A],< 0.0001
18,UAGUGUGUCACCUUCUCUCAGAGAUUAACA,0.0919 ± 0.0083
19,UAGUGAGUCACGCUUCUCUGAGAGAUUAACA,0.38 ± 0.022
20,AUCACUGUCACCUUCUCUGAGAUGAUUAACA,0.0333 ± 0.011
21,UAGUGACAGAGCUUCUGUGAGAGAUUAACA,0.00423 ± 0.0031
22,UUCACUGACACCUUCUCUCAGAGAUUAACA,0.103 ± 0.009
23,AUCACUGUCACCUUCUGAGAGAGAUUAAGA,0.0485 ± 0.013
24,UAGACUCUCACCUUCUCUGAGAGUUUAACA,0.108 ± 0.012

row,Sequence,pre-steady-state target cleavage rate
1,UAGUCUGUCACCUUCUUCUGAGAGAUUAACA,0.0776 ± 0.022
2,UAGACUGUCACCUUCUCUGAGAUGAUUAACA,0.00962 ± 0.0026
3,UAGACUGUCACCUUCUCAGAGACAUUAACA,0.153 ± 0.017
4,UAGUCUGUCACCUUCUCUGAGAGAUUAGCA,0.119 ± 0.021
5,UAGUGACACACCUUCUCUGUGAGUUUAACA,0.0493 ± 0.0058
6,UUCACUGUCACCUUCUCUCUCAGAUUAUGA,0.00591 ± 0.0035
7,UAGUCUGUCACCUUCUCUGAGAGUUAACA,0.24 ± 0.069
8,AUCACUGUCACCUUCUCUGAGAGGAUUAACA,0.431 ± 0.043
9,UAGUGACACACCAUCUCUGAGUGAUUAACA,0.014 ± 0.0034
10,UAGUGUGACACCUUCUCUGAGACAUUAACA,0.0627 ± 0.01
11,UAGUGACAGACCUUCUCUGAGAGUAUUAACA,0.0381 ± 0.0067
12,UAGUGAGUCACCUUCUCUGAGAUAUUAACA,0.26 ± 0.032
13,UAGACUGUCCCCUUCUCUGAGAGAUUAACA,0.696 ± 0.049
14,UUCACAGUCACGUUCUCUGAGAGAUUAACA,0.685 ± 0.027
15,AUCACUGUCACGUUCUCUGAGAGAUAUUGA,0.00377 ± 0.0033
16,UAGUGACAGACGCUUCUCUGAGAGAUUAACA,0.0268 ± 0.006
17,UUCACUGUCACCUUCUCAGAGAGAUUAUCA,0.186 ± 0.041
18,UAGUGUGUCUCCUUCUCUGAGAGAUUAAGA,0.081 ± 0.02
19,UAGUGAGUCACCUUUCUGAGAGAUUAACA,0.35 ± 0.03
20,UAGUGUGUCACCUUCUCAGAGAGAUUUACA,0.239 ± 0.032
21,UAGUGAGUCUGCUUCUCUGAGAGAUUAAGA,0.0359 ± 0.0074
22,UAGACUGUCACCUUCCUCUGAGAGAUUAACA,0.44 ± 0.028
23,UAGUGACACUCGUUCUCUGAGAGAUUAACA,0.0919 ± 0.008
24,UAGUCUGAUCACCUUCUCUGAGAGAUUAACA,0.652 ± 0.036

row,Sequence,pre-steady-state target cleavage rate
1,UAGUGACACACCUUCUCAGAGAGAUUAAGA,0.0233 ± 0.0077
2,UAGACACACACCUUCUCUGAGAGAUUAAGA,0.201 ± 0.037
3,UAGUGUGUUACCUUCUCUGAGAGAUUAACA,0.327 ± 0.025
4,UAGAGUGUCACCUUCUCUGAGAGAUUAUGA,0.142 ± 0.026
5,UAGACUGUCACCUUGUCUGAGUGAUUAACA,0.0247 ± 0.0041
6,UAGUGACUGUGCUUCUCUGAGAGAUUAACA,0.0581 ± 0.0074
7,UAGUGAGUCACCUUCUCUGAGAGAUUAAGCA,0.323 ± 0.051
8,UAGUGAGUCACCUUCUCAGAGACAUUAACA,0.158 ± 0.02
9,UACACUGUCACCUUGUCUGAGAGAAUAACA,0.103 ± 0.032
10,UUCACUGUCACCUACUCUGAGAGAUAAACA,0.29 ± 0.036
11,UAGUGAGUCACCUUCUCAGAGAGAUAUUGA,0.00553 ± 0.0047
12,UAGUGACAGACCUUCACUGAGAGAUUAAGA,0.00961 ± 0.0042
13,UAGUGACAGUGCUUCUCUGAGAGAUUAAUCA,0.00423 ± 0.0026
14,UAGUGACACACCUUCUCUGAGAGAUAAAGA,0.0117 ± 0.0046
15,UAGUGUGUCACCUCUCUCUGAGAGAUUAACA,0.248 ± 0.026
16,UAGUCUGUCACCUUCUCUGAGAGAUUAUCA,0.237 ± 0.031
17,UAGUGACAGUCCUUCUCUCAGAGAUUAACA,0.00363 ± 0.0026
18,UACACUGAGUCCUUCUCUGAGAGAUUAACA,0.379 ± 0.027
19,UAGUGACUCACCUUCUCAGAGAGAUUAUGA,0.00803 ± 0.0039
20,UAGUGUGUCACCUUAUCUGAGAGAUUAACA,0.423 ± 0.023
21,UUCACUGUGACCAUCUCUGAGAGAUUAACA,0.493 ± 0.026
22,UAGUGAGUCACCUUCUCUGACAGAUUAUGA,0.0112 ± 0.0041
23,UAGUGACACACGUUCUCUGAGUGAUUAACA,0.00829 ± 0.0019
24,UAGUGAGUCUCCUUCUCUGUGAGAUUAACA,0.0792 ± 0.011
